Reference: PubChem BioAssay AID1347120 (National Center for Advancing Translational Sciences (NCATS), 2019)
Among all 390,000 compounds or so, about 930 (0.24%) were called active. The shares of active, inactive and inconclusive entries below differ from those in the screen. Calls come from the whole dose curve; as a rule, active = well fitted activation curve with a large enough effect; inconclusive = small, poorly fitted or top-dose-only effect; inactive = no such curve, though single readings can be large or run the other way. Where the call is inconclusive, the potency comes from a doubtful curve fit.

Assay: qHTS for Suppressors of FUS Proteinopathy: Primary screen using FUS-linked yeast assay; note: nearly all actives have a fitted effect of over 55% in size;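 for growth rescue (activation): plate controls were DMSO vehicle for no effect and reference control for full effect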
Conditions: S. cerevisiae FUS-expressing, OD600, 24 h; Potency: growth rescue; growth rescue (activation): at 76.6 µM (top of the series)
Outline: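 Yeast FUS proteinopathy model; galactose-induced FUS (2%), starting OD 0.005. Cpds in dilution series, 24hr, 30C, 99% humidity. Abs 600 nm growth. Pos ctrl CP55940 (top 92uM final); neg ctrl DMSO.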
Potency is the fitted concentration of half-maximal effect; tags give direction and shape of the fitted curve.

Q: Which Potency does the source give for O=C(NC1CCN(C(=O)N2c3ccccc3Sc3ccccc32)CC1)c1ccccc1Cl here?
A: inconclusive: 35.5 µM [activator, partial curve]

Q: With O=C(c1c2c(nc3ccccc13)C(=O)N(C1CCCCC1)C2)N1CCN(c2ccc(F)cc2)CC1 as the compound, how does the “growth rescue (activation)” value read?
A: inactive: -9.12%

Q: With CN(CC(=O)N1CC=C(c2ccccc2)CC1)S(=O)(=O)c1ccc2c(c1)c(=O)n(C)c(=O)n2C as the compound, how does the Potency read?
A: inconclusive: 50.1 µM [activator, single point]

Q: Which Potency does the source give for CCC(C)Sc1ccc([C@@H]2[C@@H]3C(=O)N(CC)C(=O)[C@@H]3[C@]3(C(=O)OC)CCCCN23)cc1OC (stereo partly drawn) here?
A: inconclusive: 15.8 µM [activator, partial curve, poor fit]

Q: With CCN(CC)S(=O)(=O)c1cccc(NC(=O)COc2ncnc3sccc23)c1 as the compound, how does the Potency read?
A: inconclusive: 28.2 µM [activator, partial curve, poor fit]

Q: With COc1ccc(N2CCN(C(=O)CSc3nnc(-c4cccnc4)n3-c3ccccc3)CC2)cc1 as the compound, how does the Potency read?
A: inconclusive: 28.2 µM [activator, partial curve, poor fit]

Q: For CC(/C=N/n1c(-c2cccnc2)n[nH]c1=S)=C\c1ccco1, which Potency is on record?
A: inconclusive: 28.2 µM [activator, partial curve, poor fit]

Q: With CCCCCCCCN1C(=O)[C@H](CC(=O)N2CCSCC2)C[C@@]2(C(=O)OC)CCCCC=C12 as the compound, how does the Potency read?
A: inconclusive: 28.2 µM [activator, partial curve, poor fit]

Q: Which Potency does the source give for CC1(C(=O)NCC2CCCCC2)CCN1C(=O)Cc1ccc(-c2ccccc2)cc1 (stereo not drawn) here?
A: inconclusive: 28.2 µM [activator, single point]

Q: With CCOC(=O)C1CCN(S(=O)(=O)c2cc(-c3onc(C)c3C)ccc2C)CC1 as the compound, how does the Potency read?
A: inconclusive: 50.1 µM [activator, single point]

Q: For Cc1cccc2sc(N(Cc3cccnc3)C(=O)c3cccs3)nc12, which “growth rescue (activation)” value is on record?
A: inactive: 18.5%

Q: Which Potency does the source give for C/C=C/C=C\C(=O)Nc1cccc(C2=NOC3(C2)C[C@@H](C(N)=O)N(C(=O)c2cc([N+](=O)[O-])cc([N+](=O)[O-])c2C)C3)c1 (stereo partly drawn) here?
A: inconclusive: 20 µM [activator, single point]

Q: For C=CC[C@@H](CC(=O)N(CCO)Cc1ccccc1)C(=O)N[C@H](COC(=O)[C@@H](CC=C)CC(=O)OC(C)(C)C)C(C)(C)C, which Potency is on record?
A: inconclusive: 20 µM [activator, partial curve, poor fit]

Q: Which Potency does the source give for COc1ccc(OCc2nnc(SCC(=O)N3CCCc4ccccc43)n2-c2ccc(C)cc2)cc1 here?
A: inconclusive: 15.8 µM [activator, partial curve, poor fit]

Q: For CCCCCCCCN1C(=O)[C@H](CC(=O)NCCCOCCCC)C[C@@]2(C(=O)OCC)CCCC=C12, which Potency is on record?
A: inconclusive: 20 µM [activator, partial curve, poor fit]

Q: Which “growth rescue (activation)” value does the source give for CCn1cc(/C=N/NS(=O)(=O)c2ccc(OC)cc2)c(C)n1 here?
A: inactive: -3.24%

Q: For O=C(COC(=O)c1ccc(Cl)c(S(=O)(=O)N2CCCCC2)c1)NCC1CCCCC1, which Potency is on record?
A: inconclusive: 25.1 µM [activator, partial curve, poor fit]

Q: For COC(=O)C1=C(C)N(c2cccc3ccccc23)C(=O)C1, which Potency is on record?
A: inconclusive: 28.2 µM [activator, single point]

Q: With COc1ccc(C2NC(C(=O)O)Cc3c2[nH]c2ccccc32)cc1OC (stereo not drawn) as the compound, how does the Potency read?
A: inconclusive: 50.1 µM [activator, single point]

Q: Which Potency does the source give for CCc1ccc(NC(=O)CC2C(=O)N(c3ccc(Cl)cc3)C(=O)N2Cc2ccco2)cc1 (stereo not drawn) here?
A: inconclusive: 28.2 µM [activator, single point]

Q: For COc1cc(NC(=O)Nc2nc(C(N)Cc3ccc(C(F)(F)F)cc3)cs2)cc(OC)c1OC (stereo not drawn), which Potency is on record?
A: inconclusive: 31.6 µM [activator, partial curve, poor fit]

Q: With CCCCCN(C(=O)CCC(=O)OCC(=O)c1cccc(OC)c1)c1c(N)n(CCCC)c(=O)[nH]c1=O as the compound, how does the Potency read?
A: inconclusive: 28.2 µM [activator, single point]

Q: With COc1cc(-c2nnc3sc(Cc4ccccc4)nn23)cc(OC)c1OC as the compound, how does the Potency read?
A: inconclusive: 50.1 µM [activator, single point]

Q: With Cc1cccc(Nc2nnc(SCC3CCCCO3)s2)c1 (stereo not drawn) as the compound, how does the “growth rescue (activation)” value read?
A: inactive: 29.3%

Q: For CCOC(=O)/C(C#N)=C\C=C1C=CN(C)C=C1, which “growth rescue (activation)” value is on record?
A: inactive: -14.7%

Q: With Cc1cccc(-n2c(Cc3ccccc3)nnc2SCc2nc(-c3cccs3)no2)c1 as the compound, how does the Potency read?
A: inconclusive: 15.8 µM [activator, partial curve, poor fit]

Q: With CN(Cc1ccccc1)Cc1cc(=O)oc2ccc3ccccc3c12 as the compound, how does the “growth rescue (activation)” value read?
A: inactive: 20%

Q: With Oc1ccc(N=Nc2ccc3c(c2)OCCO3)c2cccnc12 as the compound, how does the “growth rescue (activation)” value read?
A: inactive: 5.76%

Q: With Cc1nc(N)sc1N=Nc1ccc(F)cc1 as the compound, how does the Potency read?
A: inconclusive: 12.6 µM [activator, partial curve, poor fit]

Q: For O=S(=O)(NCc1csc(-c2cccs2)n1)c1ccc(Cl)cc1, which “growth rescue (activation)” value is on record?
A: inactive: 18.1%

Q: Which Potency does the source give for CCOC(=O)c1cc(C)n(CC2CCC(C(=O)Nc3cccc(C)c3)CC2)c1C (stereo not drawn) here?
A: inconclusive: 20 µM [activator, partial curve, poor fit]

Q: For Cc1cc(C)nc(NC(=NCCc2c[nH]c3ccc(Cl)cc23)NC(=O)c2ccccc2C)n1, which “growth rescue (activation)” value is on record?
A: inactive: -6.9%

Q: With COc1ccc(OC)c(NC(=O)C2CCN(S(=O)(=O)c3ccc4c(c3)CCCC(=O)N4)CC2)c1 as the compound, how does the “growth rescue (activation)” value read?
A: inactive: 2.98%

Q: With O=C(NC1CCCCC1)c1ccc(CSc2nc3cccnc3n2Cc2ccc(F)cc2)cc1 as the compound, how does the “growth rescue (activation)” value read?
A: inactive: -23.5%

Q: Which Potency does the source give for Cc1ccc(-c2nc(C=Nc3ccc(O)cc3)c(O)o2)cc1 here?
A: inconclusive: 28.2 µM [activator, single point]

Q: For O=C(Nc1ccc(C(F)(F)F)cc1Cl)c1ccc(Cn2cc(Br)cn2)o1, which “growth rescue (activation)” value is on record?
A: inactive: 29.8%

Q: Which “growth rescue (activation)” value does the source give for c1ccc(COc2ccc(-c3cc4nc(NCc5ccc6c(c5)OCO6)ccn4n3)cc2)cc1 here?
A: inactive: 36%

Q: Which “growth rescue (activation)” value does the source give for CC(=O)CCc1ccc(Oc2nc(-c3cccnc3)nc3ccccc23)cc1 here?
A: inactive: 22.3%

Q: With Cc1ccc(S(=O)(=O)N2CCCCC2)cc1NC(=O)COC(=O)CN1C(=O)NC2(CC(C)CC(C)(C)C2)C1=O (stereo not drawn) as the compound, how does the Potency read?
A: inconclusive: 22.4 µM [activator, single point]

Q: With Cc1ccc(C)c(N2CCN(C(=O)Cc3ccc(NC4=NC5CS(=O)(=O)CC5S4)cc3)CC2)c1 (stereo not drawn) as the compound, how does the Potency read?
A: inconclusive: 35.5 µM [activator, single point]

Q: With COc1ccccc1CNC(=O)CCC(=O)N1Cc2cccc(OC)c2Oc2ncccc21 as the compound, how does the Potency read?
A: inconclusive: 22.4 µM [activator, partial curve, poor fit]

Q: With CC(=O)/C(=C/c1ccccc1)C(=O)Nc1ccccc1C as the compound, how does the “growth rescue (activation)” value read?
A: inactive: -26.4%

Q: For CCOc1cccc(C(=O)N2CCC(c3nc4ccccc4s3)CC2)c1, which Potency is on record?
A: inconclusive: 28.2 µM [activator, single point]

Q: Which “growth rescue (activation)” value does the source give for COc1ccc(-c2noc(N(c3cccc(Cl)c3)c3nc(-c4ccc(OC)c(OC)c4)no3)n2)cc1OC here?
A: inactive: -22.9%

Q: Which “growth rescue (activation)” value does the source give for CCC(=O)N1CCc2cc(Br)cc(S(=O)(=O)N3CCC(C(=O)Nc4ccccc4CC)CC3)c21 here?
A: inactive: 1.8%

Q: Which “growth rescue (activation)” value does the source give for O=C(COC(=O)c1cccnc1Cl)c1cccc(Cl)c1 here?
A: inactive: -4.58%

Q: Which “growth rescue (activation)” value does the source give for CCCC[C@H]1C2CC(OC(=O)Nc3ccc(Cl)cc3)C(C2)[C@H]2CCCCN21 (stereo partly drawn) here?
A: inactive: -1.08%

Q: Which Potency does the source give for CCN(CC)C(=O)CSc1nc2c(sc(=S)n2-c2ccccc2)c(=O)n1Cc1ccco1 here?
A: inconclusive: 15.8 µM [activator, partial curve, poor fit]

Q: With CCCn1c2ccccc2c2cnn(CC(=O)NCc3ccccc3Cl)c(=O)c21 as the compound, how does the Potency read?
A: inconclusive: 31.6 µM [activator, partial curve, poor fit]

Q: For CCOC(=O)c1c(C)n(S(=O)(=O)c2ccc(C)cc2C)c2ccc(NS(=O)(=O)c3ccc(C)cc3C)cc12, which Potency is on record?
A: inconclusive: 22.4 µM [activator, partial curve, poor fit]

Q: For COc1ccccc1Nc1sc(C(=O)c2ccc3c(c2)OCO3)c(N)c1S(=O)(=O)c1ccccc1, which “growth rescue (activation)” value is on record?
A: inactive: 2.08%

Q: Which “growth rescue (activation)” value does the source give for N#Cc1cc(C(=O)c2ccccc2OCC(=O)Nc2ccccc2Cl)cn(C2CCCCC2)c1=O here?
A: inactive: 35.9%

Q: With O=C(OCC#CCSc1nnc(-c2ccc3ccccc3c2)o1)c1cccs1 as the compound, how does the “growth rescue (activation)” value read?
A: inactive: 15.7%

Q: Which Potency does the source give for CCc1nn(CCCC(=O)N2CCN(c3cc(Cl)ccc3C)CC2)c(=O)c2cc3occc3n12 here?
A: inconclusive: 25.1 µM [activator, single point]

Q: With O=C1c2cccc(OCC(=O)N3CCCc4ccccc43)c2CCN1Cc1ccc(Br)cc1 as the compound, how does the Potency read?
A: inconclusive: 8.91 µM [activator, partial curve, poor fit]

Q: For Cc1cc(-c2ccc(C)c(S(=O)(=O)N3CCC(C)CC3)c2)on1, which Potency is on record?
A: inconclusive: 28.2 µM [activator, partial curve, poor fit]

Q: Which Potency does the source give for CCn1c(C(=O)N2CCC(C(=O)N3CCN(c4cc(C)ccc4C)CC3)CC2)cc2sccc21 here?
A: inconclusive: 50.1 µM [activator, single point]

Q: Which Potency does the source give for COc1ccc(CNC(=O)c2ccc3nc(CCc4ccccc4)oc3c2)cc1OC here?
A: inconclusive: 28.2 µM [activator, single point]

Q: For C#CCNC(=O)C[C@H]1C[C@@]2(C(=O)OC)C(=C[C@H](C3CCCC3)O[C@@H]2C)N(Cc2ccco2)C1=O, which “growth rescue (activation)” value is on record?
A: inactive: 27%

Q: With O=C(CNS(=O)(=O)c1ccccc1)N/N=C/c1ccccc1[N+](=O)[O-] as the compound, how does the Potency read?
A: inconclusive: 15.8 µM [activator, partial curve]

Q: With CCn1c(C)nc2cc(C(=O)NNS(=O)(=O)c3c(C)c(C)cc(C)c3C)ccc21 as the compound, how does the “growth rescue (activation)” value read?
A: inactive: 8.43%

Q: For COc1cccc(-c2nnc(-c3ccc(C)o3)o2)c1, which “growth rescue (activation)” value is on record?
A: inactive: 21.2%

Q: With Cc1c(OCC(=O)NCC2CCC(C(=O)NCCCO)CC2)ccc2c(-c3ccccc3)cc(=O)oc12 (stereo not drawn) as the compound, how does the Potency read?
A: inconclusive: 10 µM [activator, partial curve, poor fit]
